The values that follow come from a collection of fitness landscapes (doi:10.1126/science.1257360).

Some of the results follow.

To fix the notation:
B1: PhoQ; a variant is named by its letters at X, in order, P23837 (parent)
chain: MKKLLRLFFPLSLRVRFLLATAAVVLVLSLAYGMVALIGYSVSFDKTTFRLLRGESNLFYTLAKWENNKLHVELPENIDKQSPTMTLIYDENGQLLWAQRDVPWLMKMIQPDWLKSNGFHEIEADVNDTSLLLSGDHSIQQQLQEVREDDDDAEMTHSVAVNVYPATSRMPKLTIVVVDTIPVELKSSYMVWSWFIYVLSANLLLVIPLLWVAAWWSLRPIEALAKEVRELEEHNRELLNPATTRELTSLVRNLNRLLKSERERYDKYRTTLTDLTHSLKTPLXXLQXXLRSLRSEKMSVSDAEPVMLEQISRISQQIGYYLHRASMRGGTLLSRELHPVAPLLDNLTSALNKVYQRKGVNISLDISPEISFVGEQNDFVEVMGNVLDNACKYCLEFVEISARQTDEHLYIVVEDDGPGIPLSKREVIFDRGQRVDTLRPGQGVGLAVAREITEQYEGKIVAGESMLGGARMEVIFGRQHSAPKDE

Variants of B1 are the subject of the assay. Description: enrichment ratio after two sorts for PhoP signalling (ratio (wild type AVST 3.29)); higher = more functional. Particulars: with PhoP (E. coli).
With MHIR, the enrichment ratio is not above 0.25.
The figure for TENR is 1.26; for HYFP it is not above 0.25; for PGQH it is not above 0.25.
In the case of WREW, the enrichment ratio was not above 0.25.
The figure for ISWV is not above 0.25; for IFDS it is not above 0.25; for PHAW it is not above 0.25.
Consider DHET, for which the enrichment ratio was not above 0.25.
For TLRS, the enrichment ratio was not above 0.25.
Consider HVFM, for which the enrichment ratio is not above 0.25.
As for WEQF, the enrichment ratio was not above 0.25.
Regarding MAAL, the enrichment ratio came out at 9.41.
With FENY, the enrichment ratio was not above 0.25.
VSSF: the enrichment ratio is not above 0.25.
Consider LKYS, for which the enrichment ratio was not above 0.25.
For the variant ADCP, the enrichment ratio is not above 0.25.
With LSRA the figure was not above 0.25.
With SQET, the enrichment ratio is not above 0.25.
VDID: the enrichment ratio is not above 0.25.
With AMFI the figure was not above 0.25.
MKFP: the enrichment ratio was not above 0.25.
With IDDG, the enrichment ratio is not above 0.25.
With WCHM the figure was not above 0.25; with WAMF, not above 0.25; with PGIA, not above 0.25.
With DKDY, the enrichment ratio was not above 0.25.
Consider YDES, for which the enrichment ratio is not above 0.25.
Turning to THME, the enrichment ratio stood at 49.
In the case of ITRI, the enrichment ratio was not above 0.25.
On to NAIS, for which the enrichment ratio was not above 0.25.
Regarding MIQI, the enrichment ratio was not above 0.25.
As for KNIW, the enrichment ratio was not above 0.25.
The figure for IMEN is not above 0.25.
Take ACEF: the enrichment ratio is not above 0.25.
KAHT: the enrichment ratio was not above 0.25.
The figure for MVSL is 4.63.
Turning to IEMC, the enrichment ratio turned out to be 12.9.
The figure for QCMS is not above 0.25; for FDCP it is not above 0.25; for CPRF it is not above 0.25.
With RKKR, the enrichment ratio is not above 0.25.
Consider AGTK, for which the enrichment ratio is not above 0.25.
Consider QQKP, for which the enrichment ratio is not above 0.25.
As to HMDN, the enrichment ratio is not above 0.25.
The figure for VLLT is 0.409; for VLNC it is not above 0.25.
As to FYGG, the enrichment ratio is not above 0.25.
Turning to AMYS, the enrichment ratio is not above 0.25.
Turning to FDVD, the enrichment ratio was not above 0.25.
Regarding RKMG, the enrichment ratio is not above 0.25.
For the variant ENGS, the enrichment ratio was not above 0.25.
As for LWYD, the enrichment ratio was not above 0.25.
Turning to PPMD, the enrichment ratio is not above 0.25.
With HREI, the enrichment ratio is not above 0.25.
Turning to YLPM, the enrichment ratio is not above 0.25.
In the case of WSHW, the enrichment ratio is not above 0.25.
Consider WHVN, for which the enrichment ratio was not above 0.25.
With QEVR, the enrichment ratio is not above 0.25.
Turning to TFSN, the enrichment ratio was 0.566.
On to DDDH, for which the enrichment ratio was not above 0.25.
The figure for FFVI is not above 0.25; for THNN it is 10.3.
Take NQRD: the enrichment ratio is not above 0.25.
Turning to MCWS, the enrichment ratio was found to be 1.89.
Regarding HAPY, the enrichment ratio is not above 0.25.
Turning to VEII, the enrichment ratio is not above 0.25.
With TRNS, the enrichment ratio was not above 0.25.
QWVP: the enrichment ratio is not above 0.25.
Regarding FKMQ, the enrichment ratio is not above 0.25.
The figure for VVND is not above 0.25.
For LDQS, the enrichment ratio is not above 0.25.
With SSAH, the enrichment ratio is 11.
As to PIER, the enrichment ratio is not above 0.25.
On to LLSQ, for which the enrichment ratio was not above 0.25.
With WDQF, the enrichment ratio was not above 0.25.
Take FMHY: the enrichment ratio is not above 0.25.
Turning to LQHN, the enrichment ratio was not above 0.25.
With ITKT, the enrichment ratio is not above 0.25.
As for LRMA, the enrichment ratio was not above 0.25.
In the case of YDFA, the enrichment ratio was not above 0.25.
In the case of VRGG, the enrichment ratio was not above 0.25.
As for DFLQ, the enrichment ratio is not above 0.25.
IDNI: the enrichment ratio is not above 0.25.
